# The other results are listed elsewhere or left out. Sequences were assembled here from the parent chain. Values near 0.05 are background.
# B1: TEV protease; numbered along this chain (parent)
# chain: MGESLFKGPRDYNPISSSICHLTNESDGHTTSLYGIGFGPFIITNKHLFRRNNGTLVVQSLHGVFKVKDTTTLQQHLVDGRDMIIIRMPKDFPPFPQKLKFREPQREERICLVTTNFQTKSMSSMVSDTSCTFPSGDGIFWKHWIQTKDGQCGSPLVSTRDGFIVGIHSASNFTNTNNYFTSVPKNFMELLTNQEAQQWVSGWRLNADSVLWGGHKVFMVKPEEPFQPVKEATQL
# Variants of: B1
# Assay: raw area under fraction-flipped curve 0-4 h after induction (AUC4h, not background-subtracted), DNA-recorder readout of cleavage of the substrate (dimensionless); higher = more cleavage of the substrate by the protease variant
# Details: temperature: 34 °C; time window: 0-4 h after rhamnose induction
# Procedure: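 In vivo DNA recorder in E. coli TOP10(DE3) ΔrhaA at 34 °C. Each TEVp single-site mutant (parent TEVp 0) is paired with a single-site variant of the 7-mer TEVs (canonical ENLYFQ|S). The substrate sits between flexible linkers in a Bxb1-sfGFP-TEVs-SsrA fusion, so cleavage stabilises Bxb1 and speeds flipping of a recombination array, read by NGS. The value is the raw area under the fraction-flipped curve over 0-4 h after rhamnose induction (AUC4h), with ≥20 reads per time point. It is not background-subtracted; inactive controls average about 0.047.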
# 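Also: Bxb1 expression induced with 0.2% (w/v) L-rhamnose at OD600 near 0.5, cultures sampled hourly, flipped fraction per protease–substrate barcode pair counted by paired-end Illumina sequencing.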
Variant,area with substrate ENCYFQS,area with substrate ENDYFQS,area with substrate ENEYFQS,area with substrate ENHYFQS,area with substrate ENKYFQS,area with substrate ENNYFQS,area with substrate ENGYFQS,area with substrate ENIYFQS,area with substrate ENQYFQS,area with substrate ENSYFQS,area with substrate ENTYFQS,area with substrate ENVYFQS,area with substrate ENWYFQS,area with substrate ENYYFQS,area with substrate ENPYFQS,area with substrate ENRYFQS,area with substrate ENFYFQS,area with substrate ENMYFQS
R160M,0.0609,0.0604,0.0478,0.074,0.063,0.0666,,,,,,,,,,,,
R160T,0.0538,,0.0527,,,,0.052,0.117,0.0618,0.0418,0.0593,0.0844,0.024,0.0558,,,,
N172C,0.0621,0.0616,0.0916,,,0.0595,0.067,,0.0646,,,,,,0.074,,,
T174A,0.0577,0.0593,,0.0539,,,,0.0928,0.0496,,,,,,,0.0572,,
T174Y,0.0465,,0.074,,,0.0601,,,0.0661,0.0902,0.066,0.1,,,0.0563,0.0699,0.0839,
T176E,0.0733,0.0364,0.0689,0.0648,,0.0663,,0.0715,0.0753,0.0636,,0.0907,,,0.0557,,0.0657,0.068
N177Y,0.0581,0.0645,,,,0.0665,,,0.0681,0.0785,,0.064,,,0.0543,,,
P184E,0.0612,,0.0588,,,0.0664,,,0.0488,0.0777,0.0586,,,0.0616,,0.0492,,
N186Y,0.0623,,,,,0.0639,,0.0928,,,0.0507,,,,,,,
N206F,0.0683,0.0524,0.0532,0.0444,0.0396,0.0281,0.0537,,0.0571,0.0696,,0.068,,0.0726,0.0603,,0.0531,
D208L,0.0583,0.0753,0.0688,0.0736,,0.0534,,,0.0605,,0.0728,,,,,0.0382,,0.0584
D208Y,0.0649,0.0565,0.0612,0.0676,0.0802,,0.0614,0.0768,0.0487,0.0568,0.044,0.0638,,0.0455,0.0583,0.0537,0.0584,0.0736
S209I,0.0834,,0.0565,,,,,,,0.0735,,,,,,,,0.0833
H215Q,0.0586,0.0634,0.0619,0.0588,,0.034,0.0647,,0.0593,0.0558,0.0572,0.0634,0.048,,0.0278,0.0476,,0.0511
H215V,0.0584,0.0653,0.0487,,,0.0668,,0.0703,0.0637,0.0529,0.0788,,,0.0473,0.0395,0.0544,0.0588,0.0544
K216V,0.066,0.0638,0.0607,,,0.0567,0.0615,0.075,0.0589,,,,,,,0.0495,0.0517,0.159
M219A,0.0665,0.0717,0.0651,0.06,0.0526,,,,0.0596,0.104,,0.0494,0.0677,0.0437,,0.0601,0.0638,0.0631
E223Q,0.0714,,0.061,,,0.0557,,,0.0563,0.0759,0.064,0.0815,,,,,,0.0651

Variant,area with substrate ENCYFQS,area with substrate ENDYFQS,area with substrate ENEYFQS,area with substrate ENHYFQS,area with substrate ENKYFQS,area with substrate ENNYFQS,area with substrate ENGYFQS,area with substrate ENIYFQS,area with substrate ENQYFQS,area with substrate ENSYFQS,area with substrate ENTYFQS,area with substrate ENVYFQS,area with substrate ENWYFQS,area with substrate ENYYFQS,area with substrate ENPYFQS,area with substrate ENRYFQS,area with substrate ENFYFQS,area with substrate ENMYFQS
E224L,0.0695,0.0536,,0.0384,,0.0522,,0.099,,0.0555,0.0693,0.0593,,,,,0.0659,0.0834
A232E,0.0655,0.0614,0.0534,0.0688,,0.059,,0.0872,0.0671,,0.0628,0.107,,0.0709,0.0521,0.0373,0.0639,
A232L,0.0576,0.0635,0.0608,0.0574,0.0534,0.0447,,,0.0652,0.0829,0.0638,0.0626,0.0037,0.0453,0.0624,0.0465,0.0558,
G8C,,0.0522,,0.0378,,0.0921,,,,,0.055,,,,,,,
P9Q,,0.0552,0.0585,0.0653,,0.0631,0.0501,,0.0596,0.0545,,,0.0489,,,,0.0555,
G35E,,0.0321,,0.0361,,,,0.0416,0.0331,0.0446,,,,,,,0.0396,
G37Q,,0.0492,0.042,0.0613,,0.0458,0.056,0.0732,0.0626,0.0846,0.0595,0.0591,0.0448,,0.0551,0.0625,0.0428,
L48T,,0.054,0.0653,0.0623,0.0717,,0.0438,,0.0451,0.0585,0.0656,0.0592,,0.0777,,0.025,0.0433,0.0641
V57R,,0.059,0.0542,,,,,0.127,0.0627,0.0628,0.0789,0.0773,0.0635,,,,0.08,0.103
K66S,,0.0586,0.0616,0.0728,0.066,0.0699,0.0585,0.112,0.0544,0.0579,,,,0.0921,0.0586,,,0.092
P104K,,0.0572,0.0641,0.0483,,,,,,,,0.0479,,,,,0.0531,0.0618
W144I,,0.0682,0.0687,,,,0.0754,0.0879,0.0615,0.065,0.0481,0.0729,,0.0597,,0.048,,
D149R,,0.0557,0.0596,,,0.0473,0.0434,,0.047,0.0587,,,,,,,,
C152Q,,0.065,,,,,,,0.107,,,0.0239,,,0.0736,,0.0077,
F163H,,0.0697,,0.0743,0.0597,,,,0.0494,,,0.0469,,0.0556,,,0.0358,
T176G,,0.0606,0.0589,0.0563,0.077,0.0656,,,0.0552,0.0678,,,0.0546,,,0.0703,,
T176H,,0.0641,0.0687,0.0744,,0.0611,,0.0662,0.0741,,,0.0485,,,,0.0676,,0.0661
P184Y,,0.0522,0.06,0.0603,,,,,0.0505,0.0646,0.0272,,,,,0.0612,,0.0742
